Measured values: PubChem BioAssay AID687023 (Broad Institute, 2013)
Certain results were filed several times, with different values. This list holds those alone. There may be further records. Values that stand side by side are repeats in other runs, samples, wells, individuals or studies. What stands in brackets tells the records apart. Letters count within one entry.

Tested on: Env-mediated cell-cell fusion, plate reader
Assay: HIV Env cell-cell fusion inhibitors, dose response, HIV entry, plate reader, dry powder (AID 687023)

Row | Structure (SMILES) | AC50
1 | CCOc1ccc(S(=O)(=O)NCc2ccncc2)cc1 | 1.68 µM [sample A] and 27.5 nM [sample B]
2 | COc1ccccc1CCNCc1ccc(OC)c(OCc2ccccc2)c1 | 284 nM [sample A] and 3.08 µM [sample B]
